Results taken from PubChem BioAssay AID588591 (National Center for Advancing Translational Sciences (NCATS), 2011).
“And” between values parts separate entries of the source, which are not always exact repeats. Equal values may be shown once. The whole screen tested about 390,000 compounds, of which about 4,700 (1.2%) were called active. This list was built around the results that the source calls inconclusive (neither active nor inactive); the mix of calls is not that of the screen. The call rests on the fitted dose curve; in most records, active means well fitted inhibition curve with a large enough effect; inconclusive means small, poorly fitted or top-dose-only effect, or another doubt; inactive means no such curve, though single readings can be large or run the other way. Potencies beside an inconclusive call are fits to weak or partial responses and may not hold up. Where a structure was tested more than once in an assay, its records may differ in their call.

molecular target: DNA polymerase eta (Homo sapiens) (UniProt Q9Y253); test: qHTS for Inhibitors of Polymerase Eta; conditions: recombinant Pol eta, fluorescent DNA replication assay; series mostly up to 114 µM; activity change, negative = inhibition: at the top concentration
Method in brief: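 Pol eta (10 nM) was preincubated with compounds for 15 min at room temperature, after which fluorescent replication substrate (50 nM final) was added to start the reaction. Fluorescence was read kinetically at 0 and 10 min.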
On the % scale 0 is the no-effect control and ±100 the full control effect; potency means the concentration at half of the fitted maximal effect; tags describe the fitted curve by direction and shape.

Chain of UniProt Q9Y253 (Q9Y253 whole entry, looked up): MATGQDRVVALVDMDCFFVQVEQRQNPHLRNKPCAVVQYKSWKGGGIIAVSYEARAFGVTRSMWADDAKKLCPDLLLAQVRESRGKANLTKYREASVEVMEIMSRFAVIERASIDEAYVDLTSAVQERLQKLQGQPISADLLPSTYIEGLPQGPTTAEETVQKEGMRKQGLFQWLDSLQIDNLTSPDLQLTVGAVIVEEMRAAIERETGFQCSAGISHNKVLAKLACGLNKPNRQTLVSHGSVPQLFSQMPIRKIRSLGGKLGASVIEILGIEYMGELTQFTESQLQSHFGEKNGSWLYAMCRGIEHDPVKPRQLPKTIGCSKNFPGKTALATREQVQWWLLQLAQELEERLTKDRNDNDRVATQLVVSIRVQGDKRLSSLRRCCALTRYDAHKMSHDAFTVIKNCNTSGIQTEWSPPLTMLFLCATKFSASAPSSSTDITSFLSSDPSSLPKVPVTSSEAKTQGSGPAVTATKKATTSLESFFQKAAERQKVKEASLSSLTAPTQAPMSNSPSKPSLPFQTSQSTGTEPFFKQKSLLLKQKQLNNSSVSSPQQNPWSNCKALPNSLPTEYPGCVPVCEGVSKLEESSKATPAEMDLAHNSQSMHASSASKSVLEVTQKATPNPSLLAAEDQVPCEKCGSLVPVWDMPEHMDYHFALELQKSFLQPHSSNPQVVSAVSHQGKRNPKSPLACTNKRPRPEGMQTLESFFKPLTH

| Structure (SMILES) | Potency | activity change, negative = inhibition |
| --- | --- | --- |
| COc1ccccc1CCC(=O)NC1CCCN(c2ccc(C(F)(F)F)cn2)C1 (stereo unspecified) | inconclusive: 79.4 µM [inhibitor, partial curve, poor fit] |  |
| Cc1ccc(CNC(=O)CSc2ncccn2)cc1 |  | inactive: -99.2% |
| O=C1CC(c2ccco2)CC(O)=C1C=Nc1cc(Cl)ccc1Cl (stereo unspecified) | inconclusive: 22.4 µM [inhibitor, partial curve] |  |
| O=C1C=CC2(C=C1)O[C@H](Cc1ccccc1)[C@@H](Cc1ccccc1)O2 | inconclusive: 14.1 µM [inhibitor, partial curve] |  |
| Cc1cc(O)c(C(=O)/C=C/c2c(F)c(F)c(F)c(F)c2F)c(=O)o1 | active: 35.5 µM |  |
| CCCCCCn1c(=O)n2n(c1=O)C[C@]1(OC(=O)NCc3ccco3)CN(S(=O)(=O)c3ccc(C)cc3)C[C@]1(O)C2 | inconclusive: 56.2 µM [inhibitor, partial curve, poor fit] |  |
| O=[N+]([O-])c1cc2oc3c(c2c(C=NCc2ccccc2)c1O)CCCC3 | inconclusive: 79.4 µM [inhibitor, partial curve] |  |
| Cc1ccc2sc(N3CCN(CCNC(=O)c4ccco4)CC3)nc2c1C | inconclusive: 2.82 µM [inhibitor, full curve, poor fit] |  |
| CCOc1ccc(NC(=O)COc2cccc3cccnc23)cc1S(=O)(=O)N1CCCC1 | inconclusive: 20 µM [inhibitor, partial curve, poor fit] |  |
| Cc1noc(/C=C/c2ccco2)c1S(=O)(=O)N1CCC(C(=O)NCc2ccco2)CC1 | inconclusive: 17.8 µM [inhibitor, single point] |  |
| O=C(CSc1nc(O)cc(=O)[nH]1)N1c2ccccc2CCc2ccccc21 | inconclusive: 79.4 µM [inhibitor, partial curve, poor fit] |  |
| Cc1nnc(SCC(=O)Nc2nsc(-c3ccc(Cl)cc3)n2)s1 | inconclusive: 22.4 µM [inhibitor, single point] |  |
| COc1ccc(C(=O)CC(=O)O)c2c1C=CC(C)(C)O2 |  | inactive: 3.66% |
| CCOc1ccccc1C(O)C1=CC(=O)c2ccccc2C1=O (stereo unspecified) | active: 3.16 µM |  |
| O=C(C=Cc1ccco1)c1ccc2ccccc2c1 | inconclusive: 35.5 µM [inhibitor, partial curve, poor fit] |  |
| CCC(C)c1ccccc1N1CC(C(=O)Nc2ccc(S(=O)(=O)N3CCOCC3)cc2)CC1=O (stereo unspecified) | inconclusive: 0.501 µM [inhibitor, partial curve, poor fit] |  |
| COc1ccc(NC(=O)CN(C)C(=O)c2cccc(-n3cccc3)c2)cc1 | active: 11.2 µM |  |
| CCOC(=O)c1c(NC(=O)COC(=O)c2ccc(O)cc2)sc(C(=O)N(C)C)c1C |  | inactive: 8.78% |
| Nc1c(C(=O)Nc2ccc(S(=O)(=O)N3CCCC3)cc2)sc2nc3ccc(OC(F)(F)F)cc3cc12 | active: 39.8 µM |  |
| O=C(O)CSc1c2c(nc3cc(C(=O)Nc4cccc(C(F)(F)F)c4)ccc13)CCC2 | active: 39.8 µM |  |
| CCOC(=O)c1ccc(S(=O)(=O)Nc2nc3cc(S(=O)(=O)NC4=NCCCCC4)ccc3s2)cc1 |  | inactive: -5.16% |
| COCCNC(=O)c1c[nH]c2ccc(S(=O)(=O)Nc3ccc(F)cc3F)cc2c1=O | inconclusive: 89.1 µM [inhibitor, partial curve] and inconclusive: 35.5 µM [inhibitor, single point] |  |

| Structure (SMILES) | Potency | activity change, negative = inhibition |
| --- | --- | --- |
| O=[N+]([O-])c1cc(-c2ccc(/C=N/c3nc4ccccn4c3-c3ccco3)o2)ccc1Cl | inconclusive: 15.8 µM [inhibitor, full curve, poor fit] |  |
| O=C1CCC/C(=N\NC(=O)c2ccc(COc3cccc4cccnc34)cc2)C1 | inconclusive: 15.8 µM [inhibitor, full curve, poor fit] |  |
| CCc1ccc(NS(=O)(=O)c2cc(-c3cnc(C4CC4)o3)ccc2C)cc1 | inconclusive: 44.7 µM [inhibitor, partial curve, poor fit] |  |
| CCN(CC(=O)Nc1c(F)cccc1F)C(=O)c1ccc(=O)n(Cc2ccccc2)n1 |  | inactive: -15.8% |
| O=C(Cn1c(CO)nc2ccccc21)Nc1cc(C(F)(F)F)ccc1N1CCOCC1 | inconclusive: 100 µM [inhibitor, partial curve, poor fit] |  |
| CC(/C=C\c1cccnc1)=C/C(=O)O | active: 20 µM |  |
| O=C1NC(=O)/C(=C\c2ccc(O)cc2O)S1 | active: 2.82 µM |  |
| N#Cc1c(SCC(=O)Nc2cccc(C(F)(F)F)c2)sc2c(O)cc(=O)[nH]c12 | active: 20 µM |  |
| CCOc1ccc2nc(NC(=O)CCC(=O)c3cccs3)sc2c1 | inconclusive: 28.2 µM [inhibitor, partial curve, poor fit] |  |
| CCc1cccc(C)c1NC(=O)CN1CCCN(Cc2ccccc2Cl)S1(=O)=O |  | inactive: -10.2% |
| Cc1cc(NC(=O)c2cc([N+](=O)[O-])cc([N+](=O)[O-])c2C)no1 | active: 31.6 µM |  |
| CCc1ccc(/C(C)=N/NC(=O)CNC(=O)/C=C/c2ccco2)cc1 | active: 8.91 µM |  |
| Cn1c(=O)oc2cc(S(=O)(=O)NCCN3CCCCCC3)ccc21 | inconclusive: 35.5 µM [inhibitor, partial curve, poor fit] |  |
| CSc1nnc2ccc(-c3cccs3)nn12 | inconclusive: 39.8 µM [inhibitor, partial curve, poor fit] |  |
| N#C/C(=C(/O)CCl)c1nc2ccccc2[nH]1 | inconclusive: 89.1 µM [inhibitor, single point] |  |
| Cc1ccc(N(Cc2cc(=O)[nH]c3ccccc23)C(=O)CCl)cc1 | active: 56.2 µM |  |
| COc1c(C(CC(C)C)OC(C)=O)ccc2c1C(=O)OCc1cc(C)cc(O)c1O2 (stereo unspecified) | inconclusive: 44.7 µM [inhibitor, partial curve, poor fit] |  |
| O=S(=O)(c1ccc2c(c1)OCCO2)N1CCNCC1 | inconclusive: 89.1 µM [inhibitor, partial curve, poor fit] |  |
| COc1ccc(C=C2SC(=O)NC2=O)cc1OC | inconclusive: 25.1 µM [inhibitor, partial curve, poor fit] |  |
| C/C(=N\Nc1ccc([N+](=O)[O-])cc1)c1ccc(N)cc1 |  | inactive: -15.3% |
| O=C(/C=C\c1cccs1)c1c(O)ccc2ccc(=O)oc12 | inconclusive: 39.8 µM [inhibitor, partial curve, poor fit] |  |
| O=C(O)c1cccc(N/N=C/c2cccs2)c1 | inconclusive: 31.6 µM [inhibitor, partial curve, poor fit] |  |

| Structure (SMILES) | Potency | activity change, negative = inhibition |
| --- | --- | --- |
| Cc1ccc(-c2nn3c(C)nnc3s2)cc1NC(=O)c1ccc(-c2cccc(Cl)c2)o1 | inconclusive: 89.1 µM [inhibitor, partial curve] |  |
| O=c1cc(/N=C/c2coc3c(ccc4ccccc43)c2=O)[nH]c(=S)[nH]1 | inconclusive: 39.8 µM [inhibitor, partial curve] |  |
| CC(=O)n1cc(N(C(=O)CCl)c2ccccc2)c2ccccc21 | active: 14.1 µM |  |
| O=C(Nc1nnc(SCC(=O)N2CCCC2)s1)C1CC(=O)N(c2ccc(F)cc2)C1 (stereo unspecified) | inconclusive: 25.1 µM [inhibitor, full curve] |  |
| COC(=O)CC1=NN(c2ccccc2)C(=O)C1 | inconclusive: 100 µM [inhibitor, single point] |  |
| CC#CCCCC(=O)Nc1cccc(C(=O)O)c1 | active: 14.1 µM |  |
| CCOc1ccc(N2Cc3ccccc3C2)cc1 | inconclusive: 12.6 µM [inhibitor, partial curve, poor fit] |  |
| CCOc1ccc(C(=O)NC(=S)Nc2ccccc2N2CCC(C)CC2)cc1[N+](=O)[O-] |  | inactive: -15.4% |
| COc1cc2c(cc1OC)CN(c1ccc(-c3ccccc3OC)nn1)CC2 | inconclusive: 25.1 µM [inhibitor, single point] |  |
| O=C(CCc1nnc2ccc(NCc3ccco3)nn12)Nc1cccc(F)c1 |  | inactive: -11.6% |
| Cc1cccc(C(=O)Nc2nnc(S(=O)(=O)N(C)c3ccccc3C)s2)c1 | inconclusive: 100 µM [inhibitor, single point] |  |
| CCN(C(=O)CSc1nc(-c2ccc(C(C)C)cc2)no1)c1cccc(C)c1 |  | inactive: -2.26% |
| C#CCOCCOCCOCCNc1nc(N2CCN(C(=O)CCCCCCCCCCNC(=O)Cn3cc(CCCCCN)nn3)CC2)nc(N2CCN(C(=O)CCCCCCCCCCNC(=O)[C@@H](CCSC)n3cc(CCO)nn3)CC2)n1 | inconclusive: 89.1 µM [inhibitor, single point] |  |
| COc1ccc(/C=N\NC(=O)c2c(C)nc3ccc(Br)cn23)cc1 | inconclusive: 35.5 µM [inhibitor, full curve] |  |
| Cc1cc(C)c(S(=O)(=O)Nc2ccc(O)c(Sc3ncn[nH]3)c2)c(C)c1 | inconclusive: 20 µM [inhibitor, partial curve] |  |
| COCCCNC(=O)C1CCN(c2nc3ccc(C)cc3[nH]2)CC1 |  | inactive: -6.84% |
| COc1cccc(N2CCN(C(=O)CCS(=O)(=O)c3ccc4c(c3)oc(=O)n4C)CC2)c1 | inconclusive: 89.1 µM [inhibitor, partial curve, poor fit] and inconclusive: 44.7 µM [inhibitor, partial curve] |  |
| N#C/C(=C\C1=C(N2CCOCC2)C(=C\c2ccccc2)/CC1)C(=O)Nc1ccccc1F | inconclusive: 31.6 µM [inhibitor, partial curve] |  |
| O=C(Cc1cccs1)OCC(=O)c1ccco1 | active: 8.91 µM |  |
| CCOC(=O)c1cc(OC(=O)c2ccccc2C)n(-c2ccccc2)n1 |  | inactive: -6.21% |
| Cc1ccc(-n2cccc2/C=C2\C(=N)N3N=C(c4ccco4)SC3=NC2=O)cc1 | active: 14.1 µM |  |
| CCOC(=O)c1c(C)[nH]c(C)c1S(=O)(=O)N1CCN(c2cccc(C(F)(F)F)c2)CC1 | inconclusive: 63.1 µM [inhibitor, partial curve, poor fit] |  |
